Experimental data reported in publication PMC6760808.
These are yes or no findings as the source states them, for the method shown. Some results given as binding are weak or reduced against the parent protein; the word gives no strength. For some assays here: Tags and fused reporters may be left off the sequences shown.

T1: NPHP2 (inversin) (UniProt Q9Y283)
T1 sequence: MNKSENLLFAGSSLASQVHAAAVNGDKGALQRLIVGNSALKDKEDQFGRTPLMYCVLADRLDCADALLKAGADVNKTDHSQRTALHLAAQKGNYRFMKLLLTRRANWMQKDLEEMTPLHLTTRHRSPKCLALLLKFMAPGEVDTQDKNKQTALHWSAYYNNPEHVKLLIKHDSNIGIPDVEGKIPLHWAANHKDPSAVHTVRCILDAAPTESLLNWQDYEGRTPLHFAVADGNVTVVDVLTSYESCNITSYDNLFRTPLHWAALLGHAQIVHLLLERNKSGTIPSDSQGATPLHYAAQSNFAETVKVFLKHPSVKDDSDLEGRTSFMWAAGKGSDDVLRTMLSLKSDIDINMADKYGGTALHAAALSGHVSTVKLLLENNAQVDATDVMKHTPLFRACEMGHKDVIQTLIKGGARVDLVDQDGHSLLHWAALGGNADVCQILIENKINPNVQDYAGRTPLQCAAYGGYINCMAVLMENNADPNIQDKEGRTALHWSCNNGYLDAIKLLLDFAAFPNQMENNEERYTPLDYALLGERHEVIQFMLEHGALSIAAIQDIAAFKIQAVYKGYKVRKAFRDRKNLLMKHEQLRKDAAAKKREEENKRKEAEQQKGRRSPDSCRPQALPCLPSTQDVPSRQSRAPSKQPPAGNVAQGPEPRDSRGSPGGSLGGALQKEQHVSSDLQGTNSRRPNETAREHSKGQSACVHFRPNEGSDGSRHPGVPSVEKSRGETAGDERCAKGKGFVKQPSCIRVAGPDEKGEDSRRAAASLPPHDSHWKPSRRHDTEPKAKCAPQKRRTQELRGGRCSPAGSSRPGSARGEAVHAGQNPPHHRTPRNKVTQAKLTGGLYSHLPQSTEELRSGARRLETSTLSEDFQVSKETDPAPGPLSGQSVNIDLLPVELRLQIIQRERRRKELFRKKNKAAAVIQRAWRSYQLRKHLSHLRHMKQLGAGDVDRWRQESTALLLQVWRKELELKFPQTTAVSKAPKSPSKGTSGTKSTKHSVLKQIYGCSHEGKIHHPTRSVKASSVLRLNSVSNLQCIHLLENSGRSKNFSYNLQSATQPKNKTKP

T2: NPHP2-mCh-mito (UniProt Q9Y283)
T2 sequence: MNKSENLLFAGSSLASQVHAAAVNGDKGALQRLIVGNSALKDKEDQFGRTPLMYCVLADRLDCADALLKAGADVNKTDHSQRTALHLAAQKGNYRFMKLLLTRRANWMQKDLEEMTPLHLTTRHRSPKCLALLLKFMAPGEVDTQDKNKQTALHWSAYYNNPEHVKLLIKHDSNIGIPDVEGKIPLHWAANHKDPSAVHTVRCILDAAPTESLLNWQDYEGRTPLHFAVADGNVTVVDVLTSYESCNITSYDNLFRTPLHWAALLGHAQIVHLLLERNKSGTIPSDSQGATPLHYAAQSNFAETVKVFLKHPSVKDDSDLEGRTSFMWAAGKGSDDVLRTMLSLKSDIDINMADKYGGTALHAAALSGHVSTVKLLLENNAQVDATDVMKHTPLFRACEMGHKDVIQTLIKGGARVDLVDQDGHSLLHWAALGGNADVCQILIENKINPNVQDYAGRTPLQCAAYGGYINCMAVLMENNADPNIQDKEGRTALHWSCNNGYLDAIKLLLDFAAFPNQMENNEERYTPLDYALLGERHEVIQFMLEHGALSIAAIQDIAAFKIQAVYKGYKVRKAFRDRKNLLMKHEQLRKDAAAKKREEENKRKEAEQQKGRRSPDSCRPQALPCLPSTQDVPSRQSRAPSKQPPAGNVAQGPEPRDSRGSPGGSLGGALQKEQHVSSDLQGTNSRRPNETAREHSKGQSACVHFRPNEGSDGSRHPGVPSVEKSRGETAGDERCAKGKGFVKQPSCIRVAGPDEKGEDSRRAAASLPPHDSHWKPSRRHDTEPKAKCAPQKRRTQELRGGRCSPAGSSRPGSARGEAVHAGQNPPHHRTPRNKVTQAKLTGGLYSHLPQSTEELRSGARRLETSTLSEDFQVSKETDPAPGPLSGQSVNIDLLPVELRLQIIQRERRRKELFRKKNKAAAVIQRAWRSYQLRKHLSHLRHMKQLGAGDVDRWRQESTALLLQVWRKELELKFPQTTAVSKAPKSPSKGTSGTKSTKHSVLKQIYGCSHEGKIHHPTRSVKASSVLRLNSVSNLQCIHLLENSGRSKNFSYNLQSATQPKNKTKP

T3: NPHP1-mCh-mito (UniProt O15259)
T3 sequence: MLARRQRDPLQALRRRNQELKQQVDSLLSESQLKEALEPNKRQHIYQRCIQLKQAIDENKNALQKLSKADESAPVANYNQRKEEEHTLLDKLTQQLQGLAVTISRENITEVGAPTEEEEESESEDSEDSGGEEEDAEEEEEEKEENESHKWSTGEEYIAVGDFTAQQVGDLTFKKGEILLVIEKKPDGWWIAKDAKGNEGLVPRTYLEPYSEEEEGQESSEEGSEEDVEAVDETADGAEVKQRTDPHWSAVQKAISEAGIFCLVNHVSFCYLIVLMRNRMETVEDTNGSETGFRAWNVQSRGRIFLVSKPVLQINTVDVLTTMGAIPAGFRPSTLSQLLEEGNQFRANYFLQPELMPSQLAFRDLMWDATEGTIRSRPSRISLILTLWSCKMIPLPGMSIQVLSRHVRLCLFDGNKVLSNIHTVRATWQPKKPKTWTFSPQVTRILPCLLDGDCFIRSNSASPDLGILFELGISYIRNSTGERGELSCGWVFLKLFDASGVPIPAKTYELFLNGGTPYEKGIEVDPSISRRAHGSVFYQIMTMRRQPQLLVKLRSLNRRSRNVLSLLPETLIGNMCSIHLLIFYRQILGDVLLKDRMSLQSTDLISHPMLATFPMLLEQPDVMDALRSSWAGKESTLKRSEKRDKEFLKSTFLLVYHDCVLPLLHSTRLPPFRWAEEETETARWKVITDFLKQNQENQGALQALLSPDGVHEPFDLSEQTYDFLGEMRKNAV

T4: NPHP5-mCh-mito (mouse) (UniProt Q8BP00)
T4 sequence: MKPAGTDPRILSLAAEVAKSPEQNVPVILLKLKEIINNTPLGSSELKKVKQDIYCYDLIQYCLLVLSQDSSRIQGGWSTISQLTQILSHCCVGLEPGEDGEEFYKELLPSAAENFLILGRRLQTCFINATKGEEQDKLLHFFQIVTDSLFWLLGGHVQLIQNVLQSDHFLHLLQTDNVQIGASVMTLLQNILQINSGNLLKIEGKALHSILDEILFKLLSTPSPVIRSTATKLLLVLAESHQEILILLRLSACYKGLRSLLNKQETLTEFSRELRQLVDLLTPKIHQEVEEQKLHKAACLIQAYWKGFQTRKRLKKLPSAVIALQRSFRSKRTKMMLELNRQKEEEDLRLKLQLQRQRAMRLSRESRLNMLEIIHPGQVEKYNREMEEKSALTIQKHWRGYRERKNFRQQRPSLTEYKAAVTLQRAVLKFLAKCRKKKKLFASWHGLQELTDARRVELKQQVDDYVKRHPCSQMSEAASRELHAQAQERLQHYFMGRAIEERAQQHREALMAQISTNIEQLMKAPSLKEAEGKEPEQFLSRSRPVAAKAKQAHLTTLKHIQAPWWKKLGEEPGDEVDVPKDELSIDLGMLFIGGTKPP


What was measured:
[1] = molecular target: T1, NPHP2 (inversin); experiment: two-hybrid; directed yeast two-hybrid by mating: AH109 with pGBKT7 (BD, bait) fusions x Y187 with pACT2 (AD, prey) fusions; growth on -leu,-trp,-his plates scored as strong, medium or weak; each mating repeated at least three times
[2] = molecular target: T2, NPHP2-mCh-mito; experiment: knocksideways (recruitment to the mitochondrial surface, fluorescence microscopy); NPHP-mCh-mito bait on the mitochondrial surface co-expressed with EGFP-tagged nucleoporin in COS-7 cells; fixed 24 hours post-transfection
[3] = molecular target: T3, NPHP1-mCh-mito; experiment: as above
[4] = molecular target: T4, NPHP5-mCh-mito (mouse); experiment: as above

binding [1] | binding [2] | binding [3] | binding [4] | Binder
binds | – | – | – | Nup155 (protein, UniProt O75694 1-1391) MPSSLLGAAMPASTSAAALQEALENAGRLIDRQLQEDRMYPDLSELLMVSAPNNPTVSGMSDMDYPLQGPGLLSVPNLPEISSIRRVPLPPELVEQFGHMQCNCMMGVFPPISRAWLTIDSDIFMWNYEDGGDLAYFDGLSETILAVGLVKPKAGIFQPHVRHLLVLATPVDIVILGLSYANLQTGSGVLNDSLSGGMQLLPDPLYSLPTDNTYLLTITSTDNGRIFLAGKDGCLYEVAYQAEAGWFSQRCRKINHSKSSLSFLVPSLLQFTFSEDDPILQIAIDNSRNILYTRSEKGVIQVYDLGQDGQGMSRVASVSQNAIVSAAGNIARTIDRSVFKPIVQIAVIENSESLDCQLLAVTHAGVRLYFSTCPFRQPLARPNTLTLVHVRLPPGFSASSTVEKPSKVHRALYSKGILLMAASENEDNDILWCVNHDTFPFQKPMMETQMTAGVDGHSWALSAIDELKVDKIITPLNKDHIPITDSPVVVQQHMLPPKKFVLLSAQGSLMFHKLRPVDQLRHLLVSNVGGDGEEIERFFKLHQEDQACATCLILACSTAACDREVSAWATRAFFRYGGEAQMRFPTTLPPPSNVGPILGSPVYSSSPVPSGSPYPNPSFLGTPSHGIQPPAMSTPVCALGNPATQATNMSCVTGPEIVYSGKHNGICIYFSRIMGNIWDASLVVERIFKSGNREITAIESSVPCQLLESVLQELKGLQEFLDRNSQFAGGPLGNPNTTAKVQQRLIGFMRPENGNPQQMQQELQRKFHEAQLSEKISLQAIQQLVRKSYQALALWKLLCEHQFTIIVAELQKELQEQLKITTFKDLVIRDKELTGALIASLINCYIRDNAAVDGISLHLQDICPLLYSTDDAICSKANELLQRSRQVQNKTEKERMLRESLKEYQKISNQVDLSNVCAQYRQVRFYEGVVELSLTAAEKKDPQGLGLHFYKHGEPEEDIVGLQAFQERLNSYKCITDTLQELVNQSKAAPQSPSVPKKPGPPVLSSDPNMLSNEEAGHHFEQMLKLSQRSKDELFSIALYNWLIQVDLADKLLQVASPFLEPHLVRMAKVDQNRVRYMDLLWRYYEKNRSFSNAARVLSRLADMHSTEISLQQRLEYIARAILSAKSSTAISSIAADGEFLHELEEKMEVARIQLQIQETLQRQYSHHSSVQDAVSQLDSELMDITKLYGEFADPFKLAECKLAIIHCAGYSDPILVQTLWQDIIEKELSDSVTLSSSDRMHALSLKIVLLGKIYAGTPRFFPLDFIVQFLEQQVCTLNWDVGFVIQTMNEIGVPLPRLLEVYDQLFKSRDPFWNRMKKPLHLLDCIHVLLIRYVENPSQVLNCERRRFTNLCLDAVCGYLVELQSMSSSVAVQAITGNFKSLQAKLERLH
– | no binding | no binding | no binding | EGFP-tagged Nup37 (protein, UniProt Q8NFH4 1-326) MKQDASRNAAYTVDCEDYVHVVEFNPFENGDSGNLIAYGGNNYVVIGTCTFQEEEADVEGIQYKTLRTFHHGVRVDGIAWSPETRLDSLPPVIKFCTSAADMKIRLFTSDLQDKNEYKVLEGHTDFINGLVFDPKEGQEIASVSDDHTCRIWNLEGVQTAHFVLHSPGMSVCWHPEETFKLMVAEKNGTIRFYDLLAQQAILSLESEQVPLMSAHWCLKNTFKVGAVAGNDWLIWDITRSSYPQNKRPVHMDRACLFRWSTISENLFATTGYPGKMASQFQIHHLGHPQPILMGSVAVGSGLSWHRTLPLCVIGGDHKLLFWVTEV
binds | – | – | – | Nup133 (protein, UniProt Q8WUM0 1-1156) MFPAAPSPRTPGTGSRRGPLAGLGPGSTPRTASRKGLPLGSAVSSPVLFSPVGRRSSLSSRGTPTRMFPHHSITESVNYDVKTFGSSLPVKVMEALTLAEVDDQLTINIDEGGWACLVCKEKLIIWKIALSPITKLSVCKELQLPPSDFHWSADLVALSYSSPSGEAHSTQAVAVMVATREGSIRYWPSLAGEDTYTEAFVDSGGDKTYSFLTAVQGGSFILSSSGSQLIRLIPESSGKIHQHILPQGQGMLSGIGRKVSSLFGILSPSSDLTLSSVLWDRERSSFYSLTSSNISKWELDDSSEKHAYSWDINRALKENITDAIWGSESNYEAIKEGVNIRYLDLKQNCDGLVILAAAWHSADNPCLIYYSLITIEDNGCQMSDAVTVEVTQYNPPFQSEDLILCQLTVPNFSNQTAYLYNESAVYVCSTGTGKFSLPQEKIVFNAQGDSVLGAGACGGVPIIFSRNSGLVSITSRENVSILAEDLEGSLASSVAGPNSESMIFETTTKNETIAQEDKIKLLKAAFLQYCRKDLGHAQMVVDELFSSHSDLDSDSELDRAVTQISVDLMDDYPASDPRWAESVPEEAPGFSNTSLIILHQLEDKMKAHSFLMDFIHQVGLFGRLGSFPVRGTPMATRLLLCEHAEKLSAAIVLKNHHSRLSDLVNTAILIALNKREYEIPSNLTPADVFFREVSQVDTICECLLEHEEQVLRDAPMDSIEWAEVVINVNNILKDMLQAASHYRQNRNSLYRREESLEKEPEYVPWTATSGPGGIRTVIIRQHEIVLKVAYPQADSNLRNIVTEQLVALIDCFLDGYVSQLKSVDKSSNRERYDNLEMEYLQKRSDLLSPLLSLGQYLWAASLAEKYCDFDILVQMCEQTDNQSRLQRYMTQFADQNFSDFLFRWYLEKGKRGKLLSQPISQHGQLANFLQAHEHLSWLHEINSQELEKAHATLLGLANMETRYFAKKKTLLGLSKLAALASDFSEDMLQEKIEEMAEQERFLLHQETLPEQLLAEKQLNLSAMPVLTAPQLIGLYICEENRRANEYDFKKALDLLEYIDEEEDININDLKLEILCKALQRDNWSSSDGKDDPIEVSKDSIFVKILQKLLKDGIQLSEYLPEVKDLLQADQLGSLKSNPYFEFVLKANYEYYVQGQI
